Results taken from PubChem BioAssay AID493208 (National Center for Advancing Translational Sciences (NCATS), 2011).
Among all 44,000 compounds or so, about 340 (0.77%) were called active. Another 5% or so got no clear call; they are omitted. Calls follow the shape of the dose curve; as a rule, active = well fitted inhibition curve with a large enough effect; inconclusive = small, poorly fitted or top-dose-only effect; inactive = flat fitted curve, though single readings scatter. The list shows a part of the results.

Experiment: Acumen qHTS Assay for Inhibitors of the mTORC1 Signaling Pathway in MEF (Tsc2-/-, p53-/-) Cells: Sytravon;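 also: plate controls were DMSO for no effect and rapamycin for full effect; nearly all actives have a fitted effect of over 50% in size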
Settings: phospho-rpS6 immunofluorescence/PI, 24 h; series mostly up to 38.3 µM; activity change, negative = inhibition: at the top concentration
Method in brief: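 Compounds act on Tsc2-/-, p53-/- fibroblasts carrying an empty vector for 24 h before fixation and dual staining for phospho-S6 and DNA (propidium iodide). Values are percentages of cells above a rapamycin-defined pS6/PI threshold.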

Activity change, negative = inhibition, inactive:
Cc1cccc(C(=O)N2CCc3cc(CNS(=O)(=O)c4ccc(F)c(Cl)c4)ccc32)c1 -7.93%
COc1ccc(NS(=O)(=O)c2ccc3[nH]c4c(c3c2)CCCCC4)cc1 -5.16%
CC(=O)Nc1c(C)nn(-c2ccccc2)c1N1CCC(C(=O)Nc2ccccc2F)CC1 18.9%
O=C(Nc1ccccc1)N(Cc1cccc(Cl)c1)c1ccccn1 -19%
CC(=O)c1ccc(N2CCN(C(=O)Nc3ccc(C(C)C)cc3)CC2)cc1 -7.36%
COc1ccc(CCNC(=O)c2ccc3c(c2)ncn3-c2ccc(C(C)C)cc2)cc1OC -1.5%
CC(C)c1ccc2occ(CC(=O)N(Cc3ccc(F)cc3)C3CCS(=O)(=O)C3)c2c1 (stereo not drawn) -7.64%
Cn1c2ccccc2c2cnn(CC(=O)NCCCN3CCN(c4ccccc4F)CC3)c(=O)c21 0.038%
COc1ccc(NC(=O)c2ccco2)cc1NC(=O)c1c(OC)cccc1OC 0.417%
CCOc1ccc(CN2C(=O)c3ccccc3C2C(=O)NCCc2ccc(OC)c(OC)c2)cc1 (stereo not drawn) 0.89%
COc1ccccc1NC(=O)C1=C(C)Nc2ncnn2C1c1cccn1C (stereo not drawn) -1.9%
CCOC(=O)c1c(S(=O)(=O)N2CCC(C(=O)Nc3ccc(F)cc3F)CC2)c(C)n(C)c1C -13.3%
COc1ccc(CNC(=O)Cc2c(C)c3cc4c(C)coc4c(C)c3oc2=O)cc1OC 2.72%
COc1ccc(Cn2c(CO)cnc2SCc2ccccc2C)cc1 5.33%
CC1Cc2cc(S(=O)(=O)CCC(=O)NCc3ccccc3Cl)ccc2N1C(=O)C1CC1 (stereo not drawn) -19.8%
CCOc1ccc(CNS(=O)(=O)c2ccc3c(c2)CCCN3C(C)=O)cc1 -0.0441%
Cc1ccc(C)c(NC(=O)C2CCN(c3cc(C)nc4c(-c5ccc(Cl)cc5)c(C)nn34)CC2)c1 1.99%
COc1ccc(-n2cc(C(=O)Oc3cc(C)cc(C)c3)c3ccccc3c2=O)cc1 0.248%
COc1cccc(NC(=O)Cn2cc(C(=O)c3ccco3)c3ccccc32)c1 0.484%
CCC(=O)N1CCc2cc(S(=O)(=O)Nc3cc(C)ccc3OC)ccc21 4.69%
CC(C)C(=O)Nc1ccc2nc(SCC(=O)N3CCc4ccccc43)sc2c1 -7.49%
Cc1ccc(-n2c(SCC(=O)c3ccccc3)nc3c([nH]c4ccccc43)c2=O)cc1 0.195%
COc1ccccc1CC(=O)Nc1ccc2nc(Nc3cccc(Cl)c3)cc(C)c2c1 0.656%
CC(C)c1ccc(NC(=O)Cn2cc(S(=O)(=O)Cc3ccccc3Cl)c3ccccc32)cc1 -11.7%
Cc1cc(C)cc(NC(=O)c2cc(S(=O)(=O)N3CCc4ccccc43)cn2C)c1 -9.1%
O=C(Nc1ccc2oc(-c3cccc(F)c3)nc2c1)c1ccc2ccccc2c1 6.51%
COc1ccccc1CNC(=O)c1ccc2c(c1)N(Cc1c(F)cccc1Cl)C(=O)CS2 1.27%
CCCCC(Sc1nc2cc3c(cc2c(=O)n1CCCC(=O)NCc1ccc2c(c1)OCO2)OCO3)C(=O)OCC (stereo not drawn) -0.267%
O=C(CSc1ncc(S(=O)(=O)c2ccc(Br)cc2)c(=O)[nH]1)Nc1ccc2c(c1)OCCO2 -7.31%
COc1cccc(NC(=O)Cn2c(=O)n(CCCCC(=O)NCc3ccccc3Cl)c(=O)c3ccccc32)c1 -13.1%
CCOc1ccccc1N1CCN(S(=O)(=O)c2ccc(C3CCCCC3)cc2)CC1 -0.701%
CC1CCN(C(=O)CSc2nc3ccccc3nc2Cc2ccccc2)CC1 -11.3%
Cc1ccc(CNC(=O)Cn2c3ncccc3c(=O)n2-c2ccc(C)cc2)cc1 5.08%
CC(C)c1cc(-c2nc(-c3cccc(Cl)c3)no2)n[nH]1 -0.154%
COc1ccc(C)c2sc(N3CCN(C(=O)c4ccco4)CC3)nc12 3.27%
CCOc1ccc(CNC(=O)CSc2c3c(nc4ccc(Cl)cc24)CCCC3)cc1 -8.67%
COc1ccccc1N1CCN(c2cc(C)nc3nncn23)CC1 -19.5%
Cc1nn2c(=O)cc(COC(=O)c3ccc(NC(=O)COc4ccccc4F)cc3)nc2s1 0%
Cc1nc2c(c(C)nn2C(C)(C)C)c(C)c1CCC(=O)Nc1ccc(F)cc1 -9.2%
Cc1ccc2oc(C(=O)Nc3sc4c(c3C(=O)NCc3ccco3)CCC4)cc(=O)c2c1 4.55%
Cn1c(C(=O)NCc2cccc(Cl)c2)cc2oc3ccccc3c21 -8.48%
CC(=O)c1ccc(N2CCN(C(=O)CCCn3c(=O)[nH]c4ccsc4c3=O)CC2)cc1 2.91%
COCCCNC(=O)c1ccc(Cn2c(=O)c3cccn3c3cccnc32)cc1 -5.23%
COc1ccc(C(CC(=O)Nc2ccc(Br)cn2)N2Cc3ccccc3C2=O)cc1 (stereo not drawn) -12%
Cc1nn(CC(=O)NCc2ccc(N(C)C)cc2)c(=O)c2nn(-c3ccccc3)c(C)c12 -0.0063%
COc1ccccc1CCNC(=O)C1CCN(c2nnc(C)c3c(C)n(-c4ccc(C)cc4)nc23)CC1 -9.17%
Cc1ccc(Cn2c(CN3CCN(c4cccc(Cl)c4)CC3)nc3c2c(=O)n(C)c(=O)n3C)cc1 -0.505%
O=[N+]([O-])c1ccc(O)c(-c2ccnc3cc(-c4ccccc4)nn23)c1 5.7%
Cc1ccc2c(=O)cc(C(=O)Nc3c(C(=O)c4ccc(F)cc4)oc4ccccc34)oc2c1C 2.52%
CSc1nn(CC(=O)Nc2cc(C)ccc2C)c(N)c1S(=O)(=O)c1ccccc1 9.41%
O=C(Nc1nnc(S(=O)(=O)N2CCCCCC2)s1)c1ccc(Cl)cc1 11.2%
COc1ccc(NC(=O)CC(C)S(=O)(=O)c2cc3c(cc2C)NC(=O)CO3)cc1OC (stereo not drawn) 4.08%
CC(C)CC(=O)OCc1cc(=O)n2nc(C3CCCCC3)sc2n1 6.94%
COc1ccccc1CNC(=O)C1CCN(c2nnc(C)c3c(C)n(-c4ccccc4)nc23)CC1 4.85%
Cc1ccc(NC(=O)CN2C(=O)CC(c3ccc(C)c(C)c3)=Nc3ccccc32)cc1 3.29%
CCOC(=O)Cn1c(=O)oc2cc(S(=O)(=O)N3CCN(c4ccc(F)cc4)CC3)ccc21 -10.9%
Cc1cccc(C)c1OC(=O)CSc1nnc(-c2ccc3c(c2)OCO3)o1 -0.0783%
COc1ccc(CCNC(=O)c2c(C)oc3ncn(CC(C)C)c(=O)c23)c(OC)c1 1.97%
COC(=O)c1c(C)sc(-c2c(-c3ccc(OC)c(F)c3)[nH]c3c2c(=O)n(C)c(=O)n3C)c1O 0.0403%
CC(C)C(=O)Nc1nnc(S(=O)(=O)N2c3ccccc3CC2C)s1 (stereo not drawn) 0%
Cc1ccc(C(C)C)c(OCC(=O)Nc2ccc(O)c(-c3nc4cc(Cl)ccc4o3)c2)c1 3.24%
CCOC(=O)c1c(-c2ccccc2)oc2ccc(OCc3cccc(Br)c3)cc12 -4.13%
CCN1C(=O)c2ccccc2S(=O)c2ccc(C(=O)NCc3ccc(Cl)cc3)cc21 (stereo not drawn) -17.2%
CCN(c1cccc(C)c1)S(=O)(=O)c1c(C)nc2sc(C)cn2c1=O -0.737%
O=C(Cn1cc(C(=O)c2cccs2)c2ccccc21)Nc1ccc(Br)cc1 -0.491%
COc1cccc(C(c2sc3nc(-c4ccco4)nn3c2O)N2CCN(C)CC2)c1 (stereo not drawn) -2.55%
COc1ccc(CNC(=O)CN(C)S(=O)(=O)c2ccc3c(c2)c(=O)n(C)c(=O)n3C)cc1 -0.544%
COc1ccc(C(=O)Oc2cc(-c3ccc(OC)c(OC)c3)cc(=O)c3c(C)oc(C)c23)cc1 0%
CCS(=O)(=O)Nc1ccc(-c2cn3c(C)csc3n2)cc1 2.37%
COc1ccc(-c2cc(C(=O)NCCc3ccccc3)c3c(-c4ccc(Cl)cc4)[nH]nc3n2)cc1 4.66%
COc1ccc(CCNC(=O)CS(=O)(=O)Cc2nc(-c3cccc(Cl)c3)oc2C)cc1OC -9.15%
CC(C)c1ccccc1NC(=O)Cn1cnc2c1c(=O)n(C)c(=O)n2C -3.84%
COc1ccc(CNC(=O)c2cccn2-c2nnc(N3CCCCC3)s2)c(OC)c1 -6.9%
O=C(CCS(=O)(=O)c1cc(Br)cc2c1N(C(=O)C1CC1)CC2)N1CCN(c2cccc(C(F)(F)F)c2)CC1 -4.44%
O=C(Cn1c(=O)n(Cc2ccc(C(=O)NCc3ccc4c(c3)OCO4)cc2)c(=O)c2ccccc21)Nc1ccccc1F -0.305%
Cc1cccc(N2C(=O)N(Cc3cccc(C#N)c3)c3ccccc3S2(=O)=O)c1 -0.75%
CCCNC(=O)c1c(NC(=O)c2ccccc2)sc2c1CCC(C(C)(C)C)C2 (stereo not drawn) 4.05%
CC(C)N(Cc1nc(-c2ccc(Cl)cc2)no1)C(=O)c1ccco1 -19.1%
CCCc1nnc(NC(=O)C(CC)Sc2nnc3c4ccccc4n(C)c3n2)s1 (stereo not drawn) 3.27%
COc1ccc(-n2ccn(CC(=O)Nc3ccc(C)cc3C)c(=O)c2=O)cc1 5.3%
CC(C)(C)c1ccc(C(=O)NC(Cc2c[nH]c3ccccc23)C(=O)OCC(=O)c2ccc(Br)cc2)cc1 (stereo not drawn) 6.72%
COc1ccc2c(c1)c1c(c(=O)n(-c3cccc(C)c3)c(=O)n1CC(=O)NCc1ccc(C)cc1)n2C -13.6%
Cc1ccc(OCC(=O)Nc2ccc3nn(-c4ccc(C)cc4)nc3c2)cc1 4.6%
Cc1cccc(CCNC(=O)CCS(=O)(=O)c2cc3c(cc2C)NC(=O)CO3)c1 1.79%
Cc1nn(CCC(=O)Nc2ccccc2Br)c(=O)c2nn(-c3ccccc3)c(C)c12 -3.04%
CCc1nnc2c(Nc3ccccc3Br)nc3ccccc3n12 -9.44%
Cn1cnc(S(=O)(=O)N2CCC(C(=O)Nc3ccc(Cl)c(C(F)(F)F)c3)CC2)c1 2.99%
CCOC(=O)N1CCC2(CC1)OC(=O)C(C)=C2C(=O)NCc1ccccc1OC -16.8%
COc1ccccc1N1CCN(C(=O)CNS(=O)(=O)c2ccc(Br)s2)CC1 -21.9%
CCc1cccc(NS(=O)(=O)c2ccc3c(c2)N(CC(=O)OC)C(=O)CS3)c1 -18.1%
Cc1cccc(C(C)C)c1NC(=O)c1ccc2c(c1)CCCN2S(C)(=O)=O -16.7%
Cc1cc(Cl)ccc1OCC(=O)N(Cc1ccc(N(C)C)cc1)C1CCS(=O)(=O)C1 (stereo not drawn) 7.01%
CCCn1cc(S(=O)(=O)c2cccc(Cl)c2)c(=O)c2cc(F)c(N3CCCC3)cc21 2.71%
